Results published in patent US20260234245A1 (ELTHERA, published 2026).

Assays:
[1] = target: T1, human L1CAM on the surface of human cancer cell lines (human, UniProt P32004 20-1257); test: cell-based or functional assay
[2] = target: T2, soluble His-tagged human L1CAM (extracellular portion, amino acids 20 to 1120) (human, UniProt P32004 20-1120); test: SPR essentially as in Example 4, conjugate captured, His-tagged human L1CAM as analyte
T2 construct: range 20-1120; Expressed in HEK cells with an N-terminal leader peptide for secretion (not part of the assayed protein)

[3] = target: T1, human L1CAM on the surface of human …; test: cell-based or functional assay; remark: listed apart in the source

B1: AFF4-WT-VC-MMAE (antibody, human IgG1, kappa)
heavy: QVQLQESGPGLVKPSQTLSLTCTVTGYSITSDYTWNWIRQFPGKGLEWMGYISYSGSYSYNPSLKSRVTISRDTSKNQFSLKLSSVTAADTAVYYCARSFSYSYGFAYWGQGTLVTVSSASTKGPSVFPLAPSSKSTSGGTAALGCLVKDYFPEPVTVSWNSGALTSGVHTFPAVLQSSGLYSLSSVVTVPSSSLGTQTYICNVNHKPSNTKVDKRV[here human IgG1 Fc without letters]
light: DIQMTQSPSSLSASVGDRVTITCKASQDVSSAVAWYQQKPGKAPKLLIYSASYRYTGVPSRFSGSGSGTDFTFTISSLQPEDFATYYCQQHYSTPWTFGGGTKVEIKRTVAAPSVFIFPPSDEQLKSGTASVVCLLNNFYPREAKVQWKVDNALQSGNSQESVTEQDSKDSTYSLSSTLTLSKADYEKHKVYACEVTHQGLSSPVTKSFNRGEC
modifications: MC-VC-PABC-MMAE on thiols of partially reduced cysteines; drug to antibody ratio 3.8; chain and positions not stated
notes: also called AFF4-WT conjugated to VC-MMAE (MC-VC-PABC-MMAE, vedotin); AFF-WT-VC-MMAE
cytotoxic potency (IC50, mean) on Caov-3 ovarian cancer cells (L1CAM 83′653 molecules/cell) [1]: 0.275 nM
cytotoxic potency (IC50, mean) on EFO-27 ovarian cancer cells (L1CAM 51′850 molecules/cell) [1]: 0.382 nM
cytotoxic potency (IC50, mean) on FU-OV-1 ovarian cancer cells (L1CAM 168′071 molecules/cell) [1]: 0.141 nM
cytotoxic potency (IC50, mean) on HEC-1A endometrial cancer cells (L1CAM 12 molecules/cell) [1]: 36.9 nM
cytotoxic potency (IC50, mean) on HEC-1B endometrial cancer cells (L1CAM 59′450 molecules/cell) [1]: 0.068 nM
cytotoxic potency (IC50, mean) on HEC-108 endometrial cancer cells (L1CAM 68′342 molecules/cell) [1]: 0.456 nM
cytotoxic potency (IC50, mean) on HEC-251 endometrial cancer cells (L1CAM 78′216 molecules/cell) [1]: 0.055 nM
cytotoxic potency (IC50, mean) on HHUA endometrial cancer cells (L1CAM 51′267 molecules/cell) [1]: 0.028 nM
cytotoxic potency (IC50, mean) on IMR32 neuroblastoma cells (L1CAM 12′467 molecules/cell) [1]: 0.428 nM
cytotoxic potency (IC50, mean) on JHOS-2 ovarian cancer cells (L1CAM 117′667 molecules/cell) [1]: 0.175 nM
cytotoxic potency (IC50, mean) on JHOS-4 ovarian cancer cells (L1CAM 1′500 molecules/cell) [1]: 10.1 nM
cytotoxic potency (IC50, mean) on JHUEM-1 endometrial cancer cells (L1CAM 347 molecules/cell) [1]: 21.6 nM
cytotoxic potency (IC50, mean) on JIMT-1 breast cancer cells (L1CAM 94′673 molecules/cell) [1]: 0.034 nM
cytotoxic potency (IC50, mean) on MDA-MB-468 breast cancer cells (L1CAM 469 molecules/cell) [1]: 91.6 nM
cytotoxic potency (IC50, mean) on MFE-280 endometrial cancer cells (L1CAM 26′941 molecules/cell) [1]: 38.9 nM
cytotoxic potency (IC50, mean) on MeWo melanoma cells (L1CAM 38′150 molecules/cell) [1]: 0.962 nM
cytotoxic potency (IC50, mean) on OVCAR-3 ovarian cancer cells (L1CAM 85′571 molecules/cell) [1]: 0.033 nM
cytotoxic potency (IC50, mean) on OVKATE ovarian cancer cells (L1CAM 26′337 molecules/cell) [1]: 0.382 nM
cytotoxic potency (IC50, mean) on OVSAHO ovarian cancer cells (L1CAM 66′750 molecules/cell) [1]: 0.069 nM
cytotoxic potency (IC50, mean) on SK-BR-3 breast cancer cells (L1CAM 9′029 molecules/cell) [1]: 1.69 nM
cytotoxic potency (IC50, mean) on SKOV-6 ovarian cancer cells (L1CAM 22′465 molecules/cell) [1]: 15.1 nM
cytotoxic potency (IC50, mean) on SNGM endometrial cancer cells (L1CAM 15′179 molecules/cell) [1]: 1.91 nM
Kd [2]: 0.14 nM
cytotoxicity IC50 on JIMT-1 cells (6 days, ATP quantification) [3]: 0.041 nM
cytotoxicity IC50 on MeWo cells (6 days, ATP quantification) [3]: 0.245 nM
cytotoxicity IC50 on OVCAR-3 cells (6 days, ATP quantification) [3]: 0.025 nM

B2: AFF4-WT-sulfo-SPDB-DM4 (antibody, human IgG1, kappa)
heavy: QVQLQESGPGLVKPSQTLSLTCTVTGYSITSDYTWNWIRQFPGKGLEWMGYISYSGSYSYNPSLKSRVTISRDTSKNQFSLKLSSVTAADTAVYYCARSFSYSYGFAYWGQGTLVTVSSASTKGPSVFPLAPSSKSTSGGTAALGCLVKDYFPEPVTVSWNSGALTSGVHTFPAVLQSSGLYSLSSVVTVPSSSLGTQTYICNVNHKPSNTKVDKRV[here human IgG1 Fc without letters]
light: DIQMTQSPSSLSASVGDRVTITCKASQDVSSAVAWYQQKPGKAPKLLIYSASYRYTGVPSRFSGSGSGTDFTFTISSLQPEDFATYYCQQHYSTPWTFGGGTKVEIKRTVAAPSVFIFPPSDEQLKSGTASVVCLLNNFYPREAKVQWKVDNALQSGNSQESVTEQDSKDSTYSLSSTLTLSKADYEKHKVYACEVTHQGLSSPVTKSFNRGEC
modifications: sulfo-SPDB-DM4 on lysines (lysine conjugate); drug to antibody ratio 3.7; chain and positions not stated
notes: also called AFF4-WT conjugated to sulfo-SPDB-DM4
Kd [2]: 0.16 nM
cytotoxicity IC50 on JIMT-1 cells (6 days, ATP quantification) [3]: 0.568 nM
cytotoxicity IC50 on MeWo cells (6 days, ATP quantification) [3]: 0.88 nM
cytotoxicity IC50 on OVCAR-3 cells (6 days, ATP quantification) [3]: 0.899 nM

B3: AFF4-WT-Gluc-MMAE (antibody, human IgG1, kappa)
heavy: QVQLQESGPGLVKPSQTLSLTCTVTGYSITSDYTWNWIRQFPGKGLEWMGYISYSGSYSYNPSLKSRVTISRDTSKNQFSLKLSSVTAADTAVYYCARSFSYSYGFAYWGQGTLVTVSSASTKGPSVFPLAPSSKSTSGGTAALGCLVKDYFPEPVTVSWNSGALTSGVHTFPAVLQSSGLYSLSSVVTVPSSSLGTQTYICNVNHKPSNTKVDKRV[here human IgG1 Fc without letters]
light: DIQMTQSPSSLSASVGDRVTITCKASQDVSSAVAWYQQKPGKAPKLLIYSASYRYTGVPSRFSGSGSGTDFTFTISSLQPEDFATYYCQQHYSTPWTFGGGTKVEIKRTVAAPSVFIFPPSDEQLKSGTASVVCLLNNFYPREAKVQWKVDNALQSGNSQESVTEQDSKDSTYSLSSTLTLSKADYEKHKVYACEVTHQGLSSPVTKSFNRGEC
modifications: MC-betaglucuronide-MMAE on thiols of partially reduced cysteines; drug to antibody ratio 3.9; chain and positions not stated
notes: also called AFF4-WT conjugated to Gluc-MMAE (MC-betaglucuronide-MMAE)
Kd [2]: 0.14 nM
cytotoxicity IC50 on JIMT-1 cells (6 days, ATP quantification) [3]: 0.013 nM
cytotoxicity IC50 on MeWo cells (6 days, ATP quantification) [3]: 0.021 nM
cytotoxicity IC50 on OVCAR-3 cells (6 days, ATP quantification) [3]: 0.01 nM

B4: AFF4-WT-VA-SG3199 (antibody, human IgG1, kappa)
heavy: QVQLQESGPGLVKPSQTLSLTCTVTGYSITSDYTWNWIRQFPGKGLEWMGYISYSGSYSYNPSLKSRVTISRDTSKNQFSLKLSSVTAADTAVYYCARSFSYSYGFAYWGQGTLVTVSSASTKGPSVFPLAPSSKSTSGGTAALGCLVKDYFPEPVTVSWNSGALTSGVHTFPAVLQSSGLYSLSSVVTVPSSSLGTQTYICNVNHKPSNTKVDKRV[here human IgG1 Fc without letters]
light: DIQMTQSPSSLSASVGDRVTITCKASQDVSSAVAWYQQKPGKAPKLLIYSASYRYTGVPSRFSGSGSGTDFTFTISSLQPEDFATYYCQQHYSTPWTFGGGTKVEIKRTVAAPSVFIFPPSDEQLKSGTASVVCLLNNFYPREAKVQWKVDNALQSGNSQESVTEQDSKDSTYSLSSTLTLSKADYEKHKVYACEVTHQGLSSPVTKSFNRGEC
modifications: MP-PEG8-VA-PABC-SG3199 on thiols of partially reduced cysteines; drug to antibody ratio 1.8; chain and positions not stated
notes: also called AFF4-WT conjugated to VA-SG3199 (MP-PEG8-VA-PABC-SG3199, tesirine)
Kd [2]: 0.14 nM
cytotoxicity IC50 on JIMT-1 cells (6 days, ATP quantification) [3]: 0.008 nM
cytotoxicity IC50 on MeWo cells (6 days, ATP quantification) [3]: 0.006 nM
cytotoxicity IC50 on OVCAR-3 cells (6 days, ATP quantification) [3]: 0.002 nM
